# In PubChem BioAssay AID1460 (National Center for Advancing Translational Sciences (NCATS), 2008):
# Values joined by “and” are separate entries in the source; they are usually repeats but may differ in a detail not shown here. Identical values can stand only once. Among all 270,000 compounds or so, about 5,800 (2.1%) were called active. The inconclusive results got no clear call from the source; some entries with a clear call stand among them for comparison. Calls follow the shape of the dose curve; as a rule, active = well fitted inhibition curve with a large enough effect; inconclusive = small, poorly fitted or top-dose-only effect; inactive = flat fitted curve, though single readings scatter. Potencies of inconclusive entries are doubtful fits and often do not repeat.
# Target: Microtubule-associated protein tau (Homo sapiens) (UniProt P10636)
# Assay: qHTS for Inhibitors of Tau Fibril Formation, Thioflavin T Binding; also: nearly all actives have a fitted effect of over 55% in size
# Conditions: recombinant tau K18 P301L (four-repeat tau fragment), heparin-induced fibrillization, ThT fluorescence; series mostly up to 57.4 µM
# Summary of the method: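 Recombinant human tau K18 fragment […] carrying P301L, 15 uM unlabeled plus 0.24 uM Alexa 594-labeled, was fibrillized with 20 uM heparin in 100 mM sodium acetate pH 7 for 6 hr at 37 C; 30 uM ThT fluorescence read after 1 hr.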
# Potency is read from the fitted curve at half-maximal effect; tags tell the direction and shape of the fitted curve.
# Sequence of UniProt P10636 (P10636 whole entry, looked up): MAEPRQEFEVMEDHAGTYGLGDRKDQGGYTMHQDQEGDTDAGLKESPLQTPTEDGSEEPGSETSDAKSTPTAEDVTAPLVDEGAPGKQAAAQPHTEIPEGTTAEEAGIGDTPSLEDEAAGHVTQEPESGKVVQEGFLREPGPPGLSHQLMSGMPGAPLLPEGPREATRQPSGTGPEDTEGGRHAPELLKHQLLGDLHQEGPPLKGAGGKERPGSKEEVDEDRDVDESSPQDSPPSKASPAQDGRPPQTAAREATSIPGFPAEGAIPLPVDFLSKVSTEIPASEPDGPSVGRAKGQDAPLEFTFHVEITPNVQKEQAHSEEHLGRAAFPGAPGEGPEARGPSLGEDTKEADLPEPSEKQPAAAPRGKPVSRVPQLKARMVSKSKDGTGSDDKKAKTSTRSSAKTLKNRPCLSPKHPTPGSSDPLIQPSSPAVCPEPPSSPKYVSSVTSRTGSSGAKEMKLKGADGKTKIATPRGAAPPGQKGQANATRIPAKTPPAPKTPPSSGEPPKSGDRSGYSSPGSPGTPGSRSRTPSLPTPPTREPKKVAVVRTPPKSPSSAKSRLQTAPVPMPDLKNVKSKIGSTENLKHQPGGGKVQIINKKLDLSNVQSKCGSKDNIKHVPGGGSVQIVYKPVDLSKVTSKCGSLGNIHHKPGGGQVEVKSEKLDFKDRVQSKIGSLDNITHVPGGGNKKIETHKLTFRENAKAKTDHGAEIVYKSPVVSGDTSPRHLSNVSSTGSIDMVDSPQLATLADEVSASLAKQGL
row,SMILES,Potency
1,CC(C)(C)C1=C(C#N)C(c2ccncc2)C(C#N)=C(N)O1 (stereo not given),"inconclusive: 25.1 µM [inhibitor, single point]"
2,CCC(C)(C)NC(=S)Nc1ccccc1C,inactive
3,Clc1ccc(Nc2ccc(NCc3ccccc3)nn2)cc1,"inconclusive: 11.2 µM [inhibitor, partial curve]"
4,CCOc1cc(C2C(C(=O)OC)=C(C)NC3=C2C(=O)c2ccccc23)c(Br)cc1OC (stereo not given),"inconclusive: 12.6 µM [inhibitor, partial curve]"
5,C=CCn1c(SCC(=O)NC(=O)c2cccc([N+](=O)[O-])c2)nnc1-c1ccccc1,inactive
6,CCN(C(=O)CCc1nc(-c2ccc(C)cc2)no1)c1cc(C)ccc1C,"inconclusive: 31.6 µM [inhibitor, single point]"
7,Cc1nc(Nc2cccc(O)c2)c2c3c(sc2n1)CCC3,"inconclusive: 31.6 µM [inhibitor, single point]"
8,Cc1cc(/C=N/Nc2nc(N)ncc2[N+](=O)[O-])c(C)n1-c1ccccc1F,active: 15.8 µM
9,Cc1[nH]c2ccccc2c1-c1nc2ccccc2[nH]1,"inconclusive: 39.8 µM [inhibitor, single point]"
10,COc1cc(-c2[nH]ncc2CN2CCN(Cc3cccs3)CC2)cc(OC)c1OC,inactive
11,COc1ccc(-c2cn3c(n2)sc2cc(C(=O)NC4CCCc5ccccc54)ccc23)cc1 (stereo not given),inactive
12,CCCOC(=O)c1c(C)oc2c1cc(NS(=O)(=O)c1ccc(OCC)cc1)c1ccccc12,inactive
13,COc1cc2c(cc1NC(=O)COc1cc(C)ccc1C)oc1ccccc12,"inconclusive: 2.82 µM [inhibitor, full curve, poor fit]"
14,CCOC(=O)c1c(C)[nH]c(C)c1C(=O)COC(=O)c1ccc(OC)cc1,inactive
15,Cc1cccc(N2CCN(C(=O)c3cn(C4CCCCC4)c(=O)c4c3c3ccccc3n4C)CC2)c1C,"inconclusive: 12.6 µM [inhibitor, partial curve, poor fit]"
16,O=C(O)c1cccc(NN=C2c3ccccc3-c3ccccc32)c1,"inconclusive: 11.2 µM [inhibitor, partial curve]"
17,Clc1ccc2c(c1)C(N1CCNCC1)Cc1ccccc1S2 (stereo not given),"inconclusive: 39.8 µM [inhibitor, single point]"
18,CCN1CCC(N(Cc2ccc3c(c2)OCO3)C(=O)Nc2cc(Cl)ccc2C(=O)OC)CC1,inactive
19,C/C(=N/NC(=O)c1ccc(Br)o1)c1ccncc1,"inconclusive: 39.8 µM [inhibitor, single point]"
20,CCOC(=O)c1cc(CC)sc1/N=C/c1c(O)ccc2ccccc12,"inconclusive: 15.8 µM [inhibitor, single point]"
21,O=C(CNC(=O)c1ccco1)NCC(=O)OCc1cccc(Cl)c1,inactive
22,CC(C)Sc1nc2c(c(=O)n(C)c(=O)n2C)n1Cc1ccc(Cl)cc1,"inconclusive: 39.8 µM [inhibitor, single point]"
23,O=C(Nc1cccc(NC(=O)c2ccc3c(c2)OCO3)c1)c1ccccc1,"inconclusive: 20 µM [inhibitor, single point]"
24,O=S(=O)(c1ccc(F)c2ccccc12)N1CCCCC1,inactive

row,SMILES,Potency
1,COc1ccc(CCNC(=O)C2CCN(c3nn4c(=O)cc(C)nc4s3)CC2)cc1OC,"inconclusive: 4.47 µM [inhibitor, partial curve]"
2,CCc1ccc(OCC(=O)N(Cc2cccs2)c2ccc(Cl)cc2)cc1,inactive
3,CCOCCCNC(=O)C1CCCN(Cc2nc(-c3ccc(CC)cc3)oc2C)C1 (stereo not given),inactive
4,C/C(=N\NC(=O)C(N)=O)c1ccc(NC(=O)c2cccs2)cc1,"inconclusive: 17.8 µM [inhibitor, partial curve]"
5,Cc1ccc2oc(-c3ccco3)nc2c1,inactive
6,CC(=C\C(=O)O)/C(=C\c1cccc2ccccc12)C(=O)O,inactive
7,Cc1c(C)n(Cc2ccccc2)c2ccc(C(=O)NC(C)c3ccccc3)cc12 (stereo not given),inactive
8,COc1ccccc1NC(=O)c1oc2ccc(C)cc2c1C,"inconclusive: 2.51 µM [inhibitor, full curve]"
9,O=C(N/N=C/c1ccccc1C(=O)O)c1ccc(COc2cccc3cccnc23)cc1,"inconclusive: 10 µM [inhibitor, partial curve, poor fit]"
10,Cc1ccc(C(=O)CSC2=C(C#N)C(c3ccco3)C3=C(CC(C)(C)CC3=O)N2)cc1 (stereo not given),"inconclusive: 12.6 µM [inhibitor, partial curve]"
11,CCOC(=O)c1ccc(N2CCN(c3cc(Cl)ccc3C)CC2)c(NC(=O)Nc2cccc(OC)c2)c1,inactive
12,COc1ccc(C2=NN(c3nc4ccccc4s3)C(=O)C2)cc1,active: 10 µM
13,COC(=O)c1c(NC(=O)CN2C(=O)C(=O)N(CC(C)C)C2=O)sc2c1CCCCC2,"inconclusive: 25.1 µM [inhibitor, partial curve]"
14,Cc1cccc(OCCSc2nc3ccccc3n2CC(=O)N2CCCCC2)c1C,"inconclusive: 20 µM [inhibitor, partial curve, poor fit]"
15,COc1ccc(C2=Nn3c(nnc3-c3ccco3)SC2)cc1OC,"inconclusive: 14.1 µM [inhibitor, partial curve]"
16,Cc1cc(C)n2nc(C(=O)Nc3ccc(N4CCOCC4)cc3)nc2n1,"inconclusive: 28.2 µM [inhibitor, partial curve, poor fit]"
17,CC(=O)/C=C1/C(=O)Nc2ccccc21,"inconclusive: 12.6 µM [inhibitor, partial curve]"
18,N#CC1=C(N)OC2=C(C(=O)CCC2)C12CCC1(CC2)OCCO1,"inconclusive: 25.1 µM [inhibitor, partial curve]"
19,CNC(=S)N/N=C1\C(=O)c2cccc3cccc1c23,"inconclusive: 3.16 µM [inhibitor, full curve]"
20,O=C(CN(c1cccc(C(F)(F)F)c1)S(=O)(=O)c1ccc(Cl)c([N+](=O)[O-])c1)NCc1ccccc1,"inconclusive: 12.6 µM [inhibitor, partial curve]"
21,Oc1cc2c(cc1O)CN(C(=S)NCCc1ccc(Cl)cc1)CCC2,"inconclusive: 14.1 µM [inhibitor, partial curve] and inconclusive: 10 µM [inhibitor, partial curve]"
22,COc1ccc(C2C(C(=O)Nc3ccccc3OC)=C(C)Nc3ncnn32)cc1 (stereo not given),inactive
23,CCN(CC)c1ccc(-c2nn3c(-c4n[nH]c5c4CCC5)nnc3s2)cc1,"inconclusive: 12.6 µM [inhibitor, partial curve]"
24,Nc1c(C(=O)N2CCCCC2)sc(=S)n1-c1ccccc1,"inconclusive: 39.8 µM [inhibitor, single point]"

row,SMILES,Potency
1,O=[N+]([O-])c1ccc(N2CCSCC2)cc1O,"inconclusive: 12.6 µM [inhibitor, partial curve]"
2,COc1ccc(OCC(=O)Nc2ccc(C(=O)OCc3cc(=O)n4nc(C)sc4n3)cc2)cc1,inactive
3,CCCCCC(=O)O[C@]1(C(C)=O)CC[C@H]2[C@@H]3CCC4=CC(=O)CC[C@]4(C)[C@H]3CC[C@@]21C,"inconclusive: 11.2 µM [inhibitor, partial curve]"
4,C=CCn1c(O)c(C2=c3ccccc3=NC2=O)s/c1=N/c1nccs1,"inconclusive: 8.91 µM [inhibitor, partial curve]"
5,CCCCOc1ccc(C2=NC(c3ccncc3)=Nc3ccc(Br)cc3N2)cc1,"inconclusive: 20 µM [inhibitor, single point]"
6,CC(OC(=O)c1ccc(-c2ccc([N+](=O)[O-])cc2)o1)C(=O)NC(N)=O (stereo not given),"inconclusive: 12.6 µM [inhibitor, partial curve, poor fit]"
7,CCC1(c2ccccc2)NC(=S)N(c2ccc(C)cc2)N1 (stereo not given),"inconclusive: 14.1 µM [inhibitor, partial curve]"
8,CCOCCCNC(=O)/C(C#N)=C/c1ccc([N+](=O)[O-])o1,active: 14.1 µM
9,Cc1ccc(-c2nc3ccc(Cl)cn3c2Nc2ccc3c(c2)OCCO3)o1,inactive
10,O=[N+]([O-])c1ccc(O)c(N=Cc2sc3ccccc3c2O)c1,active: 4.47 µM
11,Cc1ccc(Nc2nnns2)cc1C,"inconclusive: 39.8 µM [inhibitor, single point]"
12,O=C(c1ccc(-c2ccccc2)cc1)N1CCN(Cc2ccccn2)CC1,"inconclusive: 0.891 µM [inhibitor, full curve]"
13,COc1ccccc1N/C=C/c1onc(C)c1[N+](=O)[O-],"inconclusive: 2.51 µM [inhibitor, full curve]"
14,COc1ccc(N2CCN(C(CNC(=O)CC(C)C)c3ccc4c(c3)OCO4)CC2)cc1 (stereo not given),inactive
15,COc1cccc(C2CCCCN2Cc2nc(-c3ccc(C)o3)oc2C)c1 (stereo not given),"inconclusive: 2.51 µM [inhibitor, full curve]"
16,Cc1ccc(-c2n[nH]c(=S)n2/N=C/c2ccc(C)o2)cc1,inactive
17,CCOC(=O)C(CC)/C(C)=N\NC(=O)c1cccc(C)c1 (stereo not given),"inconclusive: 31.6 µM [inhibitor, partial curve]"
18,O=C(C[n+]1cc(Br)cc(Br)c1)c1cccc([N+](=O)[O-])c1,inactive
19,Cc1ccccc1NC(=O)c1c(NC(=O)C(C)Oc2cccc(Cl)c2)sc2c1CCCC2 (stereo not given),"inconclusive: 31.6 µM [inhibitor, single point]"
20,CCc1c(C)sc2c1CCN(C(=O)Nc1ccccc1C(F)(F)F)C2c1ccccc1 (stereo not given),inactive
21,Cc1cccc(Nc2nc(N)c([N+](=O)[O-])c(NCc3ccco3)n2)c1,"inconclusive: 12.6 µM [inhibitor, partial curve]"
22,O=C1CC(NNc2nc3ccccc3s2)C(=O)N1c1ccc(F)cc1 (stereo not given),"inconclusive: 25.1 µM [inhibitor, partial curve, poor fit]"
